# In PubChem BioAssay AID1918956 (Molecular Pharmacology Branch, DTP, NCI, 2023):
# Not every entry of the source has a single result; some have several. This list holds those alone. The source may hold further records. The records of an entry are repeated measurements (runs, samples, wells, individuals or studies). Additions like (4×) count equal records among those shown.
# System: OVCAR-5 complex spheroids, viability
# Assay: Anticancer human tumor OVCAR-5 cell line growth inhibition;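 also: spheroids exposed to agents for seven days; 100% = DMSO vehicle control wells viability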
# Conditions: stronger effect = lower value
# Description: Multicellular complex tumor spheroid response to LSD1 Inhibitor Iadademstat in combination with a variety of drugs and investigational agents in selected tumor cell lines
# The current study was undertaken to assess response to LSD1 inhibitors in combination with standard-of-care drugs and investigational agents in solid tumor complex spheroid models as well as in the K-562 leukemia. Complex spheroids include a stromal component modeled by human endothelial cells (HUVEC) and fibroblasts modeled by human mesenchymal stem cells (MSCs). The concentration ranges selected for each drug and investigational agent were based upon clinically achievable concentrations if the clinical Cmax of the agent was known.
# Compounds. The drugs and investigational agents used in this study are listed on Table 1. All of the agents used, including staurosporine (NSC755774) and gemcitabine (NSC613327), were obtained from the Developmental Therapeutics Program, NCI. FDA-approved anticancer drugs are available from the NCI at http://dtp.nci.nih.gov/branches/dscb/oncology_drugset_explanation.html. Drugs and investigational agents were >95% pure by proton nuclear magnetic resonance (NMR) and liquid chromatography/mass spectrometry (LC/MS). Stock solutions were prepared at 400x in DMSO, stored at -70 degrees C, and diluted in fresh medium prior to their use. The final concentration of DMSO in cell culture wells never exceeded 0.25% (v/v). The FDA-approved anticancer drug set is available from the Developmental Therapeutics Program at https://dtp.cancer.gov/organization/dscb/obtaining/available_plates.htm. All drugs and investigational agents were tested over a range starting from a high concentration at or near the clinical Cmax and decreasing in half-log increments. If the clinical Cmax for an agent had not been determined, the highest concentration tested was 10 microM.
# Cell Lines. The patient-derived cancer cell (PDC) lines: 292921-168-R-J2-PDC, K24384-001-R-PDC, and 521955-158-R2-J5-PDC pancreatic carcinomas, 556581-035-R-J1 ovarian carcinoma, 324938-238-R-J1-PDC, 855422-203-R-J1-PDC and 883617-216-R-J1-PDC urothelial bladder carcinomas, 743489-274-T-PDC renal cell carcinoma, 138582-R-J1 Merkel cell tumor, K60290-347-R-J1 and K57222-313-R-J1-PDC glioblastomas, 653999-131-R-J2-PDC, LG0703-F948-PDC, and 349418-098-R-PDC non-small cell lung carcinomas, 885512-296-R-J2-PDC, 171881-019-R-J1-PDC breast carcinomas and 186277-243-T-J2-PDC and 233499-124-R-J2-PDC colon carcinomas were obtained from the NCI Patient-Derived Models Repository (PDMR, https://pdmr.cancer.gov). The established cell lines NCI/ADR-RES (RRID:CVCL_14520 and OVCAR-5 (RRID:CVCL_1628) ovarian carcinomas, 786-O (RRID:CVCL_1051) and A498 […] renal cell carcinoma, NCI-H211 (ATCC, cat. CRL-5824; RRID:CVCL_1529), NCI-H196 (ATCC, cat. CRL-5823, RRID:CVCL_1509), SW 1271 (ATCC, cat. CRL-2177, RRID:CVCL_1716) and NCI-H1876 (ATCC, cat. CRL-5902, RRID:CVCL_1503) small cell lung carcinomas, MDA-MB-231 (RRID:CVCL_0062) and MDA-MB-468 (RRID:CVCL_0419)breast carcinomas (10-12). Pooled donor human umbilical vein endothelial cells (HUVEC, Lonza, cat. CC-2519) and human mesenchymal stem cells (hMSC, Lonza, cat. PT-2501) were purchased from Lonza (Walkersville, MD).
# Cell Culture. All cells were maintained in an incubator at 37 degrees C and 5% CO2 with 95% humidity. The PDC lines were cultured according to standard operating procedures established by the NCI PDMR (https://pdmr.cancer.gov). Briefly all PDCs were thawed and cultured in Matrigel-coated flasks prepared with a working solution of 1X Ham's F-12 nutrient mix, without supplementation (Invitrogen, Waltham, MA, cat. 11765054), 100 U/mL penicillin-streptomycin (Invitrogen, cat. 15140122), and 2.5% Matrigel (Corning Inc., Corning, NY, cat. 354248) for the first three passages. […]
Structure (SMILES),"viability, T/C (compound alone 0.316 µM)","viability, T/C (compound alone 1 µM)","viability, T/C (compound alone 3.16 µM)","viability, T/C (compound alone 10 µM)"
NC1CC1c1ccc(-c2cccc(O)c2)cc1 (stereo unspecified),"109 (2×), 103, 105, 108 (2×), 101 (2×), 89.2, 86.7, 90.8, 107 (2×), 93.4, 102, 96.5, 112, 104, 99.2, 91.4, 95.4, 100, 96.6, 93.3, 98.2%","96.5, 104 (2×), 89.1, 102 (2×), 96.4, 109, 94.8, 110, 65.5, 108, 87.8, 96.6, 96.3, 88.6, 90, 88.1, 106 (2×), 80.3, 99.5, 95.8, 88.9, 87.4%","100, 90.6 (2×), 90.9, 91.1, 91, 90.1, 86.1, 78.8, 91.3, 85.9, 92 (2×), 86.9, 93.6, 86.7, 98.3, 85.5, 102, 74.9, 92.2, 77.7, 94.8, 90.3, 93.8%",–
NC1CCC(NC2CC2c2ccccc2)CC1 (stereo unspecified),–,"97.1, 98.2, 100 (3×), 91.9, 116, 95.2, 79.4, 90.5, 98.9, 104 (3×), 96, 102, 87.8, 93.5, 85.6, 79.3, 105, 107, 101, 95.1, 99.4%","95.7, 93.7 (2×), 99.9, 101 (2×), 95, 98.4, 97, 105, 92.8, 75.5, 104 (2×), 90.7, 92.2, 92.4, 103, 82.8, 97.3, 99.6, 91.4, 90.3, 97.1, 96.2%","86.5, 97.9, 87, 81, 91.2, 81.5 (2×), 73.9, 76.8, 85.9, 87.3, 81.9, 86.8, 92 (2×), 84.7, 84.9, 91.7, 101, 93.4, 85.3, 76.7, 77.9%"
